Measured values: PubChem BioAssay AID463173 (ICCB-Longwood Screening Facility, Harvard Medical School, 2010)
Screen size: about 52,000 compounds; about 4,300 (8.3%) were called active. No stated cut-off is given here; in the data, active means survival mostly below about 52% (no sharp cut-off); inactive means mostly above about 56%. The list shows a part of the results.

What follows are molecules tested on DeltatarO mutant (assay: growth inhibition of S. aureus wild type versus tarO mutant, primary screen, teichoic acid synthesis inhibitors, RN4220, OD600 (AID 463173)). Details: OD600, 18 h, stronger effect = lower value, screened at 18.75 µg/mL (by protocol).

SMILES | survival
CCc1ccc2nc(N(Cc3cccnc3)C(=O)c3cccs3)sc2c1 | inactive: 122%
CC(C)c1ccc(S(=O)(=O)Nc2ccc(O)c(Sc3nc4ccccc4s3)c2)cc1 | active: 1%
CC(=O)c1ccc(NC(=O)CSc2nccn2Cc2ccco2)cc1 | inactive: 83%
CSc1cccc(NC(=O)C2CCN(S(=O)(=O)c3ccc4[nH]c(=O)ccc4c3)CC2)c1 | inactive: 103%
CC(=O)N1CCN(c2ccc(NC(=O)COc3ccc(Cl)c(C)c3)cc2)CC1 | inactive: 68%
CCN(CC)CCN(C(=O)c1ccc(C(=O)OC)cc1)c1nc2ccc(Cl)cc2s1 | active: -4%
CCOC(=O)C1(C)C=C(Nc2ccc(C)cc2)C(=O)N1c1ccccc1 (centres undefined) | inactive: 50%
COc1cc2c(=O)c(S(=O)(=O)c3ccc(C)cc3)cn(Cc3cccc(C)c3)c2cc1OC | inactive: 70%
CC1CN(C(=O)N2CCC(C(=O)NCCC3=CCCCC3)CC2)c2ccccc2O1 (centres undefined) | inactive: 107%
CCCCNC(=O)C1CCCN(c2nnc(C)c3c(C)n(-c4ccc(Cl)cc4)nc23)C1 (centres undefined) | inactive: 67%
O=C(CSc1nnc(-c2cccs2)o1)Oc1ccc(Cl)cc1 | inactive: 65%
CC1CCN(CN2C(=O)CCC2=O)CC1 | inactive: 95%
O=c1nc2ccccn2c2c1c(=O)[nH]c1ccccc12 | inactive: 106%
CC(Oc1ccccc1F)C(=O)NCC1(N2CCOCC2)CCCCC1 (centres undefined) | inactive: 61%
Cc1cc(C)cc(NC(=O)c2cc(S(=O)(=O)N3CCCCC3)c[nH]2)c1 | inactive: 69%
CC1=C2C(N)=C(C(=O)Nc3ccccc3)SC2NC(C(F)(F)F)=C1 (centres undefined) | inactive: 95%
CCOc1ccccc1C(=O)N=C1NC(=O)CS1 | inactive: 81%
CC1CCCN(c2ncnc3c2nnn3C)C1 (centres undefined) | inactive: 75%
CCC1CN(C(=O)N2CCC(C(=O)NCc3ccccc3F)CC2)c2ccccc2O1 (centres undefined) | inactive: 72%
O=C(Nc1ccc(C(F)(F)F)cc1)C1(c2cccs2)CCOCC1 | inactive: 87%

SMILES | survival
CCCOC(=O)c1cccc(Nc2nc(C(=O)OCC)nc3ccccc23)c1 | active: 20%
COc1ccc(CNC(=O)Cc2ccc(NC(=O)N3CCCCc4ccccc43)cc2)cc1 | inactive: 67%
CCOc1ccc(NC(=O)c2cc(S(=O)(=O)N3CCC(C)CC3)cn2C)cc1 | inactive: 112%
O=C(Nc1nnc2n1CCS2)c1cc(C(F)(F)F)cc(C(F)(F)F)c1 | inactive: 95%
CCOc1ccc(N(C)S(=O)(=O)c2cc(-c3cnc(C)o3)ccc2OC)cc1 | inactive: 68%
CN(C)S(=O)(=O)c1ccc2c(c1)N(CC(=O)N1CCC(C(N)=O)CC1)CCS2 | inactive: 88%
COc1ccc(/C=C/C(=O)Nc2cccc(F)c2)cc1 | inactive: 50%
Cc1ccc(C)c(NC(=O)Cn2cc(S(=O)(=O)c3ccc(F)cc3)c(=O)c3cc(F)ccc32)c1 | inactive: 87%
Cc1cc(=O)n2[nH]c(CC(=O)O)nc2n1 | inactive: 98%
COc1ccc(CNC(=O)C2CCN(c3nnc(C)c4c(C)n(-c5ccc(C)cc5)nc34)CC2)cc1 | inactive: 105%
CCc1ccc(NC(=O)c2sc3nc(C)cc(C)c3c2NC(=O)c2ccccc2)cc1 | inactive: 83%
COc1ccc(OC)c(-c2cc(C(=O)NCc3ccc(Cl)cc3)no2)c1 | inactive: 47%
Cc1ccc(-c2nn3c(C)nnc3c3ccccc23)cc1S(=O)(=O)NC(C)(C)CO | inactive: 74%
COc1cccc(CNC(=O)Nc2ccc3c(c2)N(C)C(=O)c2ccccc2S3)c1 | active: 42%
Cc1ccccc1NC(=O)C1CCN(S(=O)(=O)c2cccc3nonc23)CC1 | inactive: 120%
Nc1ccc(-c2nc3c(Cl)cccc3[nH]2)cc1 | inactive: 97%
Cc1oc(-c2ccccc2)nc1Cn1c(=O)cc(-c2ccccc2)c2c(C)nn(C)c21 | inactive: 92%
COc1ccccc1N1CCN(C(=O)c2ccco2)CC1 | inactive: 104%
O=C(Nc1c[nH]c(=O)[nH]c1=O)c1ccco1 | inactive: 97%
CCN(C(=O)Cn1cnc2c1c(=O)n(C)c(=O)n2C)c1ccccc1C | inactive: 87%

SMILES | survival
Cc1ccc(NC(=O)c2cnc(SCC(=O)N3CCCc4ccccc43)n(C)c2=O)cc1C | inactive: 85%
Cn1c(=O)c2c(-c3ccccc3)n3c(c2n(C)c1=O)C(c1cccc([N+](=O)[O-])c1)Nc1ccccc1-3 (centres undefined) | inactive: 53%
Cc1cccc(C)c1NC(=O)Cn1c(=O)n(CCC(=O)NCc2ccc3c(c2)OCO3)c(=O)c2sccc21 | inactive: 90%
COc1ccc(-c2cc(C(F)(F)F)n3nc(C(=O)Nc4ccc(Cl)cc4C(F)(F)F)cc3n2)cc1OC | inactive: 93%
Cc1ccc(NC(=O)C2CCCN(c3nc4ccccc4s3)C2)c(C)c1 (centres undefined) | inactive: 76%
CCc1ccc2[nH]c(=O)c(C(c3nnnn3C(C)(C)C)N3CCCCC3)cc2c1 (centres undefined) | inactive: 95%
COc1ccc(C(=O)N2CCN(CCc3ccccn3)CC2)cc1 | inactive: 109%
O=C(CCS(=O)(=O)c1nc(-c2ccc3c(c2)OCO3)cc(C(F)(F)F)n1)Nc1ccccc1C(F)(F)F | inactive: 71%
COC(=O)Cn1c(SCCOc2ccccc2Cl)nc2ccccc21 | active: 42%
COc1ccc(C(C)=O)cc1CSc1nc(NCc2ccc(Cl)cc2)c2ccccc2n1 | active: 8%
CN(C)c1ccc(/C=N/NC(=O)c2ccccc2)cc1 | inactive: 95%
COc1ccc(-c2cc(C(F)(F)F)n3nc(C(=O)Nc4cccc(Cl)c4Cl)cc3n2)cc1OC | inactive: 123%
CCOC(=O)c1cc(-c2ccc(C)cc2)n(CC(=O)Nc2cc(C)ccc2C)c1C | inactive: 90%
CN(C)S(=O)(=O)c1ccc2c(c1)oc(=O)n2C | inactive: 100%
CC(C)OC(=O)c1ccc(N)cc1 | inactive: 89%
CCc1ccccc1NC(=O)c1cc(S(=O)(=O)N2CCC(C)CC2)cn1C | inactive: 49%
CC(C)CN(CC(C)C)c1nnc(NC(=O)Nc2cccc(C(F)(F)F)c2)s1 | inactive: 88%
COc1ccc(OCC(=O)Nc2ccc3c(c2)N(C)C(=O)c2ccccc2S3)cc1 | inactive: 88%
Cc1ccc2nc(Cl)c3cc(C(=O)N4CCCC(C)C4)sc3c2c1 (centres undefined) | active: -7%
